Reference: paper PMC8694192, “Synthesis and biological evaluation of new derivatives of thieno-thiazole and dihydrothiazolo-thiazole scaffolds integrated with a pyrazoline nucleus as anticancer and multi-targeting kinase inhibitors” (RSC Advances, 2021)

Assays:
MCF-7 cells [1] = assay: DNA-flow cytometric cell cycle analysis (PI staining); assay type: cell-based, human; details: MCF-7, 24 h, 4.021 μM for compound 1, 8.35 μM for 3c
Method: More details in the ESI. ^†
DMSO was utilized as a negative control. The stages of cell cycle were being detected via flow cytometry after propidium iodide (PI) staining followed by RNAse treatment.[63] In this experiment, MCF-7 cells were incubated with a concentration of 4.021 μM for compound 1 and with 8.35 μM for compound 3c for 24 h. The flow cytometry approach was used to quantify cell populations at various stages of the cell cycle (pre-G1, G1, S and G2/M phases).
screening of final compounds.
using 1 μM concentration of ATP.
1.2.4. Annexin V-FITC apoptosis assay
Briefly, cells were seeded

VEGFR-2 = VEGFR-2 (Homo sapiens, UniProt P35968); details: relative to sorafenib
MCF-7 cells [2] = assay: In vitro cytotoxicity, MTT assay, MCF-7; details: relative to doxorubicin
HepG-2 cells = assay: In vitro cytotoxicity, MTT assay, HepG-2; details: relative to doxorubicin

Structure (SMILES) | percentage of cells at G1 (MCF-7 cells [1]) [%] | percentage of cells at G2/M (MCF-7 cells [1]) [%] | percentage of cells at pre-G1 (MCF-7 cells [1]) [%] | fold decrease in inhibitory activity against VEGFR-2 (VEGFR-2) | fold decrease in activity against MCF-7 (MCF-7 cells [2]) | fold decrease in activity against HepG-2 (HepG-2 cells) [folds]
Cc1c(NC2=NC(=O)CS2)c(=O)n(-c2ccccc2)n1C [Compound 1, 2-((1,5-Dimethyl-3-oxo-2-phenyl-2,3-dihydro-1H-pyrazol-4-yl)amino)thiazol-4(5H)-one] | 52.38 | 23.51 | 26.37 | about 2.4 folds | – | –
Cc1c(Nc2nc3c(C(=O)NN)c(N)sc3s2)c(=O)n(-c2ccccc2)n1C [Compound 3c, 5-Amino-2-((1,5-dimethyl-3-oxo-2-phenyl-2,3-dihydro-1H-pyrazol-4-yl)amino) thieno[3,2-d]thiazole-6-carbohydrazide] | – | – | – | ~2.2 folds | about 1.8 folds | ~1.3
